Measurements published in a collection of fitness landscapes (doi:10.1016/j.celrep.2020.107928).
The full ranking holds about 81,000 sequences; the median of “one-hybrid fitness for binding parS DNA” is about -0.17, and the highest 2% start at about 0.51. The list shows a part of the results.

B1: Caulobacter ParB omega fusion; a variant is named by its letters at X, in order, B8GW30 (parent)
chain: MESVVVGEPGMSEGRRGLGRGLSALLGEVDAAPAQAPGEQLGGSREAPIEILQRNPDQPRRTFREEDLEDLSNSIREKGVLQPILVRPSPDTAGEYQIVAGERAWRAAQRAGLKTVPIMVRELDDLAVLEIGIIENVQRADLNVLEEALSYKVLMEKFERTQENIAQTIGKSXSHVANXMRLLXLPDEVQSYLVSGELTAXHARAIAAAADPVALAKQIIEGGLSVRETEALARKAPNLSAGKSKGGRPPRVKDTDTQALESDLSSVLGLDVSIDHRGSTGTLTITYATLEQLDDLCNRLTRGI

Variants of: B1
Assay: one-hybrid fitness for binding parS DNA (scaled: cognate 1, non-cognate 0); higher = stronger binding
Conditions: with parS DNA site
Summary of the method: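 Values were rescaled so that cognate is 1 and non-cognate is 0. Each is a fitness, the log change in a variant's read ratio to wild type from Illumina reads of plasmids before and after selection, with three replicate libraries pooled and variants under 10 reads dropped. Selection of the Caulobacter ParB libraries, four specificity codons randomised, used E. coli USO with a HIS3 reporter, site 19 bp from the promoter, on M9-minus-histidine with 0.1 mM IPTG and 5 mM 3-AT for 48 hours at 37°C.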
With HQIN the “one-hybrid fitness for binding parS DNA” value was at most 0.2.
In the case of VGNC, the “one-hybrid fitness for binding parS DNA” value is reported as at most 0.2.
HAQS was tested, and the “one-hybrid fitness for binding parS DNA” value was at most 0.2.
In the case of KTRI, the “one-hybrid fitness for binding parS DNA” value is reported as at most 0.2.
With PCGH the “one-hybrid fitness for binding parS DNA” value was at most 0.2.
For SSQI, the “one-hybrid fitness for binding parS DNA” value was at most 0.2.
With LGML the “one-hybrid fitness for binding parS DNA” value was at most 0.2.
With QAYY the “one-hybrid fitness for binding parS DNA” value was at most 0.2.
IRME was tested, and the “one-hybrid fitness for binding parS DNA” value was at most 0.2.
With ANKL the “one-hybrid fitness for binding parS DNA” value was at most 0.2.
With YAEG the “one-hybrid fitness for binding parS DNA” value was at most 0.2.
For VDHL, the “one-hybrid fitness for binding parS DNA” value was at most 0.2.
NADS was tested, and the “one-hybrid fitness for binding parS DNA” value was at most 0.2.
In the case of RYTE, the “one-hybrid fitness for binding parS DNA” value is reported as at most 0.2.
In the case of TCMR, the “one-hybrid fitness for binding parS DNA” value is reported as at most 0.2.
YLIS was tested, and the “one-hybrid fitness for binding parS DNA” value was at most 0.2.
In the case of MDRP, the “one-hybrid fitness for binding parS DNA” value is reported as at most 0.2.
With CRTN the “one-hybrid fitness for binding parS DNA” value was at most 0.2.
For WARC, the “one-hybrid fitness for binding parS DNA” value was at most 0.2.
HRKW was tested, and the “one-hybrid fitness for binding parS DNA” value was at most 0.2.
For LGTA, the “one-hybrid fitness for binding parS DNA” value was at most 0.2.
In the case of GDSP, the “one-hybrid fitness for binding parS DNA” value is reported as at most 0.2.
With YCDY the “one-hybrid fitness for binding parS DNA” value was at most 0.2.
SLPD was tested, and the “one-hybrid fitness for binding parS DNA” value was at most 0.2.
For MIWG, the “one-hybrid fitness for binding parS DNA” value was at most 0.2.
In the case of QHQC, the “one-hybrid fitness for binding parS DNA” value is reported as at most 0.2.
For RSRP, the “one-hybrid fitness for binding parS DNA” value was at most 0.2.
TQQI was tested, and the “one-hybrid fitness for binding parS DNA” value was at most 0.2.
For IQML, the “one-hybrid fitness for binding parS DNA” value was at most 0.2.
For HCIS, the “one-hybrid fitness for binding parS DNA” value was at most 0.2.
With RSRA the “one-hybrid fitness for binding parS DNA” value was 0.605.
VTCT was tested, and the “one-hybrid fitness for binding parS DNA” value was at most 0.2.
For MLEF, the “one-hybrid fitness for binding parS DNA” value was at most 0.2.
In the case of TVTS, the “one-hybrid fitness for binding parS DNA” value is reported as at most 0.2.
TRGC was tested, and the “one-hybrid fitness for binding parS DNA” value was at most 0.2.
With GMCR the “one-hybrid fitness for binding parS DNA” value was at most 0.2.
DRVW was tested, and the “one-hybrid fitness for binding parS DNA” value was at most 0.2.
For GSSH, the “one-hybrid fitness for binding parS DNA” value was at most 0.2.
With RLKM the “one-hybrid fitness for binding parS DNA” value was 0.399.
With CVFR the “one-hybrid fitness for binding parS DNA” value was at most 0.2.
With QIWW the “one-hybrid fitness for binding parS DNA” value was at most 0.2.
For NHMR, the “one-hybrid fitness for binding parS DNA” value was at most 0.2.
With SMQN the “one-hybrid fitness for binding parS DNA” value was at most 0.2.
For VRHW, the “one-hybrid fitness for binding parS DNA” value was at most 0.2.
In the case of WQTP, the “one-hybrid fitness for binding parS DNA” value is reported as at most 0.2.
With SCRY the “one-hybrid fitness for binding parS DNA” value was at most 0.2.
In the case of QFFR, the “one-hybrid fitness for binding parS DNA” value is reported as at most 0.2.
In the case of WDTS, the “one-hybrid fitness for binding parS DNA” value is reported as at most 0.2.
In the case of SQEY, the “one-hybrid fitness for binding parS DNA” value is reported as at most 0.2.
For PLQL, the “one-hybrid fitness for binding parS DNA” value was at most 0.2.
In the case of CVNC, the “one-hybrid fitness for binding parS DNA” value is reported as at most 0.2.
In the case of FCMC, the “one-hybrid fitness for binding parS DNA” value is reported as at most 0.2.
For RLQV, the “one-hybrid fitness for binding parS DNA” value was at most 0.2.
For GYHF, the “one-hybrid fitness for binding parS DNA” value was at most 0.2.
In the case of YWPL, the “one-hybrid fitness for binding parS DNA” value is reported as at most 0.2.
In the case of TDNY, the “one-hybrid fitness for binding parS DNA” value is reported as at most 0.2.
KFHC was tested, and the “one-hybrid fitness for binding parS DNA” value was at most 0.2.
With CYRV the “one-hybrid fitness for binding parS DNA” value was at most 0.2.
In the case of CGFT, the “one-hybrid fitness for binding parS DNA” value is reported as at most 0.2.
NPFD was tested, and the “one-hybrid fitness for binding parS DNA” value was at most 0.2.
With GIVL the “one-hybrid fitness for binding parS DNA” value was at most 0.2.
With PPAL the “one-hybrid fitness for binding parS DNA” value was at most 0.2.
In the case of CILD, the “one-hybrid fitness for binding parS DNA” value is reported as at most 0.2.
For TASM, the “one-hybrid fitness for binding parS DNA” value was at most 0.2.
EPHR was tested, and the “one-hybrid fitness for binding parS DNA” value was at most 0.2.
For QGTI, the “one-hybrid fitness for binding parS DNA” value was at most 0.2.
With HTHC the “one-hybrid fitness for binding parS DNA” value was at most 0.2.
In the case of WSFC, the “one-hybrid fitness for binding parS DNA” value is reported as at most 0.2.
In the case of FYDL, the “one-hybrid fitness for binding parS DNA” value is reported as at most 0.2.
For PGEL, the “one-hybrid fitness for binding parS DNA” value was at most 0.2.
With TVVC the “one-hybrid fitness for binding parS DNA” value was at most 0.2.
For HSAY, the “one-hybrid fitness for binding parS DNA” value was at most 0.2.
With VNQT the “one-hybrid fitness for binding parS DNA” value was at most 0.2.
RVCW was tested, and the “one-hybrid fitness for binding parS DNA” value was 0.255.
With RDSY the “one-hybrid fitness for binding parS DNA” value was at most 0.2.
With LGYR the “one-hybrid fitness for binding parS DNA” value was at most 0.2.
QGWD was tested, and the “one-hybrid fitness for binding parS DNA” value was at most 0.2.
